Measurements as given in PubChem BioAssay AID624296 (National Center for Advancing Translational Sciences (NCATS), 2012).
Hit rate of the full screen: of about 350,000 compounds, about 9,900 (2.8%) were called active. Inconclusive results, whose numbers are uncertain, are shown with a selection of clear calls. The call rests on the fitted dose curve; in most records, active means well fitted activation curve with a large enough effect; inconclusive means small, poorly fitted or top-dose-only effect; inactive means no such curve, though single readings can be large or run the other way. Potencies of inconclusive entries are left out as doubtful fits.

Test: A quantitative high throughput screen for small molecules that induce DNA re-replication in MCF 10a normal breast cells. Further: nearly all actives have a fitted effect of over 50% in size. On activity, positive = re-replication: % of control where 0% means no effect.
Settings: MCF 10A DNA re-replication, Hoechst nuclear intensity, 48 h; activity, positive = re-replication: at 46.1 µM (top of the series)
Potency means the concentration at half of the fitted maximal effect; tags describe the fitted curve by direction and shape.

Row | Structure (SMILES) | activity, positive = re-replication | Potency
1 | O=C(CN1CCCSc2ccccc21)N1CCN(S(=O)(=O)c2ccccc2)CC1 | inactive: 13.1% | 
2 | CCCCCOc1ccc(C(=O)NCC(=O)NCC(=O)OCC)cc1 |  | inconclusive [activator, single point]
3 | CC1CC(C)CN(CCCNC(=O)c2ccc3c(c2)NC(=O)C(N2CCCCC2)S3)C1 (stereo not drawn) |  | inconclusive [activator, single point]
4 | O=C(NCC(c1cccs1)N1CCc2ccccc21)c1ccccc1 (stereo not drawn) |  | inconclusive [activator, single point]
5 | FC(F)(F)c1cccc(-c2cc(C3CCNCC3)[nH]n2)c1 |  | inconclusive [activator, single point]
6 | COc1ccc(C(=O)c2c(C)oc3ccc(O)c(CN4CCOCC4)c23)cc1 | inactive: 16.4% | 
7 | CCOC(=O)c1ccc(NC(=O)c2ccc(C)c(S(=O)(=O)N3CCOCC3)c2)cc1 |  | inconclusive [activator, single point]
8 | CC1CCN(C(=O)C2CCN(C(=O)c3cc4sccc4n3Cc3ccc(F)cc3)CC2)CC1 |  | inconclusive [activator, full curve, poor fit]
9 | CCN1/C(=C/c2ccc3cc(C)ccc3[n+]2CC)Sc2cc(C)ccc21 |  | inconclusive [activator, single point]
10 | O=C(Nc1ccc2c(c1)nc1n2CCSC1)c1ccco1 | inactive: 11.1% | 
11 | Cc1cc(C)c(C(=O)COc2cccnc2[N+](=O)[O-])cc1C |  | inconclusive [activator, single point]
12 | CC(C)(C)C1CCC(C(=O)Nc2ccccc2)CC1 (stereo not drawn) |  | inconclusive [activator, partial curve]
13 | O=C(CSc1ncnc2nc[nH]c12)N1CCN(c2ccc(Cl)cc2)CC1 | inactive: 8.85% | 
14 | COc1ccc(/C(N)=N/OC(=O)c2ccc(C)c([N+](=O)[O-])c2)cc1 |  | inconclusive [activator, partial curve, poor fit]
15 | CCCOc1ccc(C(=O)NCCC(=O)NCCCC(=O)OCC)cc1 |  | inconclusive [activator, single point]
16 | Cc1c(C(=O)NCC(c2ccco2)N2CCCC2)sc2ccccc12 (stereo not drawn) | inactive: 102% | 
17 | COC(=O)C1=C(C)N(c2ccc(OC)cc2)C(C)=C(C(=O)OC)C1c1ccccc1 |  | inconclusive [activator, single point]
18 | COc1ccc(CN2C[C@H]3CCCN3c3cc(Br)ccc3S2(=O)=O)cc1 |  | active: 1.16 µM
19 | CN(C)CCNC(=O)c1sc2cccc(F)c2c1Cl | inactive: 27.7% | 
20 | CC1(c2ccc([N+](=O)[O-])cc2)NC(=O)N(CC(=O)c2ccc3c(c2)OCO3)C1=O (stereo not drawn) |  | inconclusive [activator, partial curve, poor fit]
21 | CC(C)(C)OC(=O)NCCCCCNC(=O)c1[nH]cnc1C(=O)N[C@@H](Cc1ccccc1)C(=O)OC(C)(C)C |  | inconclusive [activator, single point]
22 | O=C1N[C@@H](Cc2ccccc2)COC(=O)[C@@H](Cc2ccc(F)cc2)CC/C=C/C[C@H]1CC(=O)N(CCO)Cc1ccccc1 |  | inconclusive [activator, single point]

Row | Structure (SMILES) | activity, positive = re-replication | Potency
23 | COc1ccc(NC(=O)C(=O)NCCC2CCCCN2S(=O)(=O)c2cccs2)cc1 (stereo not drawn) |  | active: 2.06 µM
24 | O=C1SCC(c2ccc(Cl)cc2Cl)=NN1Cc1nnc(-c2ccccc2)o1 |  | inconclusive [activator, single point]
25 | Oc1ccc(N2CCN(c3ncnc4sc(-c5ccccc5)cc34)CC2)cc1 |  | inconclusive [activator, full curve]
26 | Cc1ccc(-c2cc(C(F)(F)F)nn2-c2ccc(S(N)(=O)=O)cc2)cc1 |  | inconclusive [activator, single point]
27 | CCCCCCC[C@@H](C/C=C/CCC(=O)N(C)C/C(=C/Cl)C/C(=C\C(=O)N1C[C@H](O)CC1=O)OC)OC |  | inconclusive [activator, single point]
28 | O=C(CSc1nnc(COc2ccc(Cl)cc2)o1)N1CCCCC1 | inactive: 0.384% | 
29 | CC1=Nc2ccc(C)cc2/C1=C/c1c(N)n2oc(C)cc2nc1=O |  | active: 18.4 µM
30 | CC1CCCCC1NC(=O)CCNS(=O)(=O)c1ccc2c(c1)CCC(=O)N2 (stereo not drawn) |  | inconclusive [activator, single point]
31 | C[C@H]1CCC(=O)N([C@H](COc2ccccc2)Cc2ccccc2)CC1 |  | inconclusive [activator, partial curve, poor fit]
32 | CCOC(=O)c1sc(NC(=O)c2ccc(Cl)s2)cc1C |  | inconclusive [activator, full curve, poor fit]
33 | C=C(CCC(=O)c1ccccc1)C(=O)c1ccccc1 |  | active: 9.2 µM
34 | Cc1ccc(N(CC(=O)NC2CCCCCC2)S(=O)(=O)c2c(C)nn(C)c2C)cc1 | inactive: 24.6% | 
35 | c1cncc(CNc2cccc(-c3nc4ccccc4[nH]3)c2)c1 |  | inconclusive [activator, full curve, poor fit]
36 | CN(CC(=O)NCCc1ccc(S(N)(=O)=O)cc1)CC(=O)Nc1ccc(Cl)cc1 | inactive: 13.7% | 
37 | CCN1CCN(c2ccc(NC(=O)CCc3c(C)nc4c(-c5ccccc5)c(C)nn4c3C)cc2)CC1 | inactive: 18.3% | 
38 | Cc1cc(Br)ccc1OCC(=O)NNC(=O)C(=O)Nc1ccccc1 | inactive: -8.11% | 
39 | Cc1ccc(CNC(=O)CSc2nc3n[nH]c(C)c3c(=N)n2-c2cccc(C)c2)cc1 |  | inconclusive [activator, single point]
40 | C/C(N=Nc1nc2ccccc2s1)=N\Nc1ccccc1O |  | inconclusive [activator, full curve, poor fit]
41 | COc1ccc(-c2csc(N(CCCN(C)C)C(=O)c3ccc(C(C)(C)C)cc3)n2)cc1 |  | inconclusive [activator, single point]
42 | CN1c2ccccc2N(C)C1c1ccc2c(c1)OCO2 | inactive: 0.385% | 
43 | C=C1c2ccccc2S(=O)(=O)N(Cc2ccccc2)C1COCc1ccccc1 (stereo not drawn) |  | inconclusive [activator, single point]
